Experimental data as given in PubChem BioAssay AID1362 (SRMLSC, 2008).
This is one part of the list. The main result of the screen is listed elsewhere. These columns were measured beside it and carry no call. Most of these compounds were active or inconclusive in the main read-out, so they are no random draw.

Assay: growth inhibition of WT strain, primary screen, mitochondrial fusion inhibitor project, WT and mutant strains, chemical genetic (AID 1362); note: tested in S. cerevisiae
Conditions: mitochondrial fusion phenotypic screen, at 10 µM
Work on `CCOC(=O)c1c(NC(=O)c2cccs2)sc2c1CCN(C(=O)OCC)C2` yielded an inhibition of 17.7%.
With `CC(C)(C)c1ccc(/C=N/NC(=S)Nc2cccnc2)cc1` the inhibition was 35%.
With `CCOC(=O)C1=CN(c2cccc(F)c2)C=C(C(=O)OCC)C1c1cc(OC)c(O)c([N+](=O)[O-])c1` the inhibition was -2.03%.
In the case of `Cc1ccc(S(=O)(=O)Nc2ccccc2-c2ccccc2NS(=O)(=O)c2ccc(C)cc2)cc1`, the inhibition is reported as 17.6%.
In the case of `CN1C=C/C(=C\c2cc[n+](C)c3ccccc23)c2ccccc21`, the inhibition is reported as 67.9%.
Work on `CCOC(=O)/C(=C/c1ccc(N2CCC(c3ccccc3)=N2)cc1)C(C)=O` yielded an inhibition of 6.01%.
Compound `Cc1cccc(N2CCN(C(=O)c3cc4c(C)nc5ccccc5c4o3)CC2)c1C` has an inhibition of 7.86%.
With `COc1ccc(CCn2nnnc2C(CC(C)C)N2CCN(c3ncccn3)CC2)cc1OC` (configuration not stated) the inhibition was 6.51%.
Compound `CCCCn1c2ccccc2c2nnc(SCC(=O)NC3=NN=C(c4ccccc4)CS3)nc21` has an inhibition of 14.8%.
With `CC1=NN(/C(=N\c2nnc(C)s2)Nc2ccc(C(C)(C)C)cc2)[C@H](c2ccc(C)cc2)S1` the inhibition was 30.7%.
In the case of `CC(Nc1ccc(Cl)cc1)c1cc(Cl)ccc1O` (configuration not stated), the inhibition is reported as 50.6%.
Compound `CN(C)S(=O)(=O)c1ccc(C(=O)Nc2nnc(-c3ccc4c(c3)CCCC4)o2)cc1` has an inhibition of -6.25%.
In the case of `O=C(COc1cccc2ccccc12)Nc1nc2ccccc2[nH]1`, the inhibition is reported as 54.1%.
`CC1C(c2ccccc2)N(C)C(c2ccccc2)CC1(O)c1ccccc1` (configuration not stated) showed an inhibition of 14.6%.
`Clc1ccc(-c2nc(N3CCCCC3)nc3ccccc23)cc1` showed an inhibition of 27.8%.
`CCCCNC(=O)C1=C(N)C(C(=O)Nc2ccc(C)c(S(=O)(=O)N3CCCCC3)c2)SC1=Nc1ccc(C)cc1C` (configuration not stated) gave an inhibition of -1.36%.
Work on `CCCCOC(=O)c1ccc(NC(=O)c2nn(C)cc2Br)cc1` yielded an inhibition of 23.1%.
`O=C(CSCC(=O)N1CCCCC1)Nc1nc(-c2ccc(Cl)s2)cs1` showed an inhibition of 58.9%.
In the case of `CC(=O)N1/C(=C/c2ccc(N(C)C)cc2)C(=O)c2ccccc21`, the inhibition is reported as 16.4%.
In the case of `O=C(C1=C[C@@H](c2csc3ccccc23)C[C@@H](OCc2ccc(CO)cc2)O1)N1CCN(Cc2ccccc2)CC1`, the inhibition is reported as 10.2%.
For `Oc1cccc(C(O)CNCc2ccc(OCc3ccc(Cl)cc3Cl)cc2)c1` (configuration not stated), the inhibition was 30.4%.
In the case of `S=C(NCC1CCCO1)NC12CC3CC(CC(C3)C1)C2` (configuration not stated), the inhibition is reported as 45.4%.
Compound `C/C(=N\N=C(/N)SC1CC(=O)N(c2ccc(Cl)c(Cl)c2)C1=O)c1cccs1` (configuration not stated) has an inhibition of 94.9%.
In the case of `Cc1cccc(/C(N)=N/OC(=O)N2c3ccccc3Sc3ccccc32)c1`, the inhibition is reported as 53.5%.
For `Cc1ccc(-n2cc(-c3ccccc3)c3c(N4CCN(C)CC4)ncnc32)cc1`, the inhibition was 51.7%.
In the case of `Nc1c(-c2ccccc2)c(CSc2nc3ccccc3[nH]2)nn1-c1cccc(Cl)c1`, the inhibition is reported as 27.2%.
Compound `Cc1nc(NC(=O)c2ccccc2)sc1-c1csc(Nc2cccc(F)c2)n1` has an inhibition of 14%.
For `CC1(C)CC(CCN(Cc2ccccc2)C(=O)c2ccco2)(c2ccccc2)CCO1` (configuration not stated), the inhibition was 17.1%.
Compound `CCOc1ccc(-c2[nH]ncc2Oc2ccccc2OCC)c(O)c1` has an inhibition of -6.53%.
Compound `O=C(COC(=O)c1ccccc1[N+](=O)[O-])c1ccc(C2CCCCC2)cc1` has an inhibition of 23.4%.
Work on `COc1cccc(C(C)NC(=S)NCc2ccc(Cl)cc2)c1` (configuration not stated) yielded an inhibition of 37.1%.
`CCOC(=O)C1=C(NC(=S)NC(=O)c2ccccc2)c2ccccc2CC1C(C)C` (configuration not stated) gave an inhibition of 28.9%.
With `Cc1ccc(Sc2ccc(CN3CCCCC3)cc2[N+](=O)[O-])cc1` the inhibition was 47.9%.
Compound `CCCCCCOc1ccc(NC(=O)CC2C(=O)N(CC)C(=S)N2Cc2ccco2)cc1` (configuration not stated) has an inhibition of 20.4%.
Work on `S=C(NCCC(c1ccccc1)c1ccccc1)Nc1cccc(Cl)c1` yielded an inhibition of 37.7%.
For `O=C(c1ccc(C#Cc2ccccc2)o1)N1CCN(c2ccccn2)CC1`, the inhibition was 32.3%.
Work on `CCC(C)(C)c1ccc(OCCCC[n+]2ccc(C)cc2)c(C(C)(C)CC)c1` yielded an inhibition of 97.7%.
In the case of `COc1cccc(C2Nc3c(F)cc(Br)cc3C3C=CCC32)c1OC` (configuration not stated), the inhibition is reported as 6.21%.
With `CC(=O)OCCCNc1cc(Sc2nc3ccccc3s2)c2nonc2c1[N+](=O)[O-]` the inhibition was 92.6%.
In the case of `COc1ccccc1NC(=S)NC(=O)c1c(-c2ccccc2Cl)noc1C`, the inhibition is reported as 36.6%.
Work on `CC(=O)N1N=C(c2cccc(Cl)c2)OC1c1ccc(C(C)C)cc1` (configuration not stated) yielded an inhibition of 48%.
`O=C1NN=C(c2ccc(Cl)cc2)CC1c1c[nH]c2ccccc12` (configuration not stated) showed an inhibition of 36.1%.
`CC(C)CNS(=O)(=O)c1ccc(S(=O)(=O)N2CCCN(Cc3ccccc3)C2)cc1` showed an inhibition of -3.95%.
For `CC(=O)Nc1sc2c(c1-c1nc3ccccc3s1)CCN(C(C)C)C2`, the inhibition was 52.7%.
Compound `CCOc1ccc(NS(=O)(=O)c2cnc(Cl)c(Cl)c2)cc1` has an inhibition of -12.9%.
`CC(/C=N/Nc1nc2ccccc2[nH]1)=C\c1ccccc1` gave an inhibition of 88%.
Work on `O=S(=O)(Nc1ccc(-n2cccc2)cc1)c1ccc(Cl)cc1Cl` yielded an inhibition of 84%.
For `Cc1nnc(NC(=O)c2sc3nc(-c4cccs4)cc(C(F)(F)F)c3c2N)s1`, the inhibition was 8.72%.
For `COc1ccc(C(=O)Nc2ccccc2C(=O)N/N=C/c2cccc3ccccc23)cc1`, the inhibition was 60%.
Compound `CCc1ccccc1NC(=S)N=Nc1c(O)n(C)c2ccc(S(=O)(=O)N3CCOCC3)cc12` has an inhibition of 19.4%.
`CCCSc1ccc2nc(-c3ccccc3)cn2c1` showed an inhibition of 60.6%.
Compound `Cc1ccc(-c2cc3ccccc3nc2N2CCOCC2)cc1` has an inhibition of 54.3%.
`Cc1cc(C)c2sc(N(CCCN(C)C)C(=O)c3ccc(Br)s3)nc2c1` gave an inhibition of 93.9%.
With `N#Cc1c(NC(NC(=O)c2ccco2)C(=O)c2ccccc2)sc2c1CCCC2` (configuration not stated) the inhibition was 31.1%.
`Cc1ccc2nc(-c3ccc(NC(=O)CNC4CC4)cc3)sc2c1` gave an inhibition of 33.4%.
In the case of `O=c1cc2c(nn1Cc1ccccc1Cl)-c1ccccc1CC2`, the inhibition is reported as 28.6%.
Work on `Cc1ccc(C(C)C)cc1OCC(=O)N/N=C/c1ccc2c(c1)OCCO2` yielded an inhibition of -1.75%.
`Nc1nc(-c2ccccc2)c(N=Nc2cccc3ccccc23)s1` showed an inhibition of 76.6%.
`CN(C)CC(C(=O)c1ccccc1)c1ccccc1` (configuration not stated) showed an inhibition of 75.8%.
Work on `O=C(COc1ccc(Cl)cc1Cl)NNC(=S)Nc1ccc(F)cc1` yielded an inhibition of 51.7%.
For `CCc1ccc(OCc2n[nH]c(=S)n2C(C)CCCC(C)C)cc1` (configuration not stated), the inhibition was 20.4%.
For `COc1ccccc1N1CCN(c2ncnc3c2oc2ccccc23)CC1`, the inhibition was 56.7%.
Work on `COc1ccccc1NC(=S)N(Cc1ccccn1)Cc1ccccc1Cl` yielded an inhibition of 23.4%.
Work on `O=C(O)c1cc(-c2ccc(/C=N/Nc3ccc(Cl)cc3)o2)ccc1Cl` yielded an inhibition of 57.6%.
In the case of `CCC(C)NC(=S)N1CCN(C(c2ccccc2)c2ccccc2)CC1` (configuration not stated), the inhibition is reported as 37.9%.
`N=c1c2c(n(Cc3ccc([N+](=O)[O-])cc3)c3c1CCC3)CCCC2` gave an inhibition of 57.3%.
In the case of `CCOC(=O)c1sc2nc(CSc3ccccc3)nc(N3CCC(C(N)=O)CC3)c2c1C`, the inhibition is reported as -4.15%.
Compound `CN1CCN(Cc2ccc(Sc3ccc(Cl)cc3)c([N+](=O)[O-])c2)CC1` has an inhibition of 81.5%.
Work on `CC(=O)N(C)c1ccc(OCC(O)Cn2c3ccc(Cl)cc3c3cc(Cl)ccc32)cc1` (configuration not stated) yielded an inhibition of -27.4%.
Compound `CN(CC(=O)Nc1ccc(Cl)c(Cl)c1)C(=O)C12CC3CC(CC(C3)C1)C2` has an inhibition of 57%.
`c1ccc(-c2nc(N3CCCCC3)nc3ccccc23)cc1` gave an inhibition of -13.6%.
Work on `Cc1c(C(=O)NCc2ccc3c(c2)OCO3)oc2ccc(Br)cc12` yielded an inhibition of 25.6%.
With `CC(C)(C)CC(C)(C)NC(=O)Nc1cccc([N+](=O)[O-])c1` the inhibition was 12.3%.
`CSc1ccc(Cl)c(C(=O)NCCOc2cc(C(C)C)ccc2C)c1` showed an inhibition of 23%.
With `CC1CC2=C(NC(=S)NC2c2ccccc2F)/C(=C/c2ccccc2F)C1` (configuration not stated) the inhibition was 48.5%.
`CCOc1ccc(C(C(=O)NC2CCCC2)N(Cc2ccccc2)C(=O)c2nsc(Cl)c2Cl)cc1` (configuration not stated) showed an inhibition of 3.08%.
In the case of `CCC(C)c1ccc(OCCn2ccnc2)cc1` (configuration not stated), the inhibition is reported as 65.9%.
In the case of `COc1ccccc1CCN1C(=S)NC(C)(C)CC1(C)O` (configuration not stated), the inhibition is reported as 61.7%.
With `Cc1ccc(C(C)(C)C)c(OCCCn2ccnc2)c1` the inhibition was 64.4%.
Compound `C(=C\c1ccccc1)/CN1CCN(C(c2ccccc2)c2ccccc2)CC1` has an inhibition of 61.6%.
`CCCN1C(=O)/C(=C/c2ccc(N3CCCC3)c(C)c2)NC1=S` showed an inhibition of 50.1%.
Work on `C=C(C)COc1ccc(-c2[nH]ncc2-c2ccc(Br)cc2)c(O)c1` yielded an inhibition of 91.1%.
For `CCCCSCCCNC(=S)Nc1ccccc1C`, the inhibition was 68.5%.
Work on `CCOC(=O)N1CCN(CC(O)COCCC23CC4CC(CC(C4)C2)C3)CC1` (configuration not stated) yielded an inhibition of 55.1%.
Compound `CC1CCC(C(C)C)C(OCC(O)CNC(C)c2ccccc2)C1` (configuration not stated) has an inhibition of 18%.
With `CCOc1ccc(C(=O)N/N=C(\c2ccccc2)c2ccccn2)cc1` the inhibition was 47%.
Work on `CCOC(=O)c1c(C)[nH]c(N=Nc2ccccc2C)c1C` yielded an inhibition of 71.7%.
`Cc1nnc(SCC(=O)Nc2cc(-c3cc(C)c(C)cc3C)nn2-c2ccccc2)s1` gave an inhibition of 31.8%.
With `CCC(NS(=O)(=O)c1c(C)[nH]c(=O)[nH]c1=O)C12CC3CC(CC(C3)C1)C2` (configuration not stated) the inhibition was 6.44%.
In the case of `Cc1ccc(/C=C/C2=NN(Cc3ccccc3Cl)C(=O)CC2)cc1`, the inhibition is reported as 30%.
Compound `C(=N\Nc1nc2ccccc2[nH]1)/c1ccccn1` has an inhibition of 61.4%.
Work on `Cc1c2c(nc3ccccc13)CCC(C(C)(C)C)C2` (configuration not stated) yielded an inhibition of 40.4%.
With `CCOC(=O)C1=NN(c2cccc(C)c2)C2(S1)SC(C(C)=O)=C(C)N2c1ccccc1` (configuration not stated) the inhibition was 23.8%.
Compound `COc1ccc(-c2csc(Nc3ncccc3C)n2)cc1` has an inhibition of 72.3%.
Compound `O=C(Nc1ccc(C(F)(F)F)cc1)c1cc(S(=O)(=O)NCC2COc3ccccc3O2)ccc1F` (configuration not stated) has an inhibition of 26.2%.
For `CN1CCN(CCCN2c3ccccc3Sc3ccc(C(F)(F)F)cc32)CC1`, the inhibition was 92.1%.
In the case of `CCCN1CCN(c2ncnc3scc(C4COc5ccccc5O4)c23)CC1` (configuration not stated), the inhibition is reported as 31.5%.
Work on `CCc1ccc(NC(=O)CSc2nc3ccccc3c(=O)n2CCCN2CCC(C)CC2)cc1` yielded an inhibition of 62.4%.
In the case of `COc1ccc(Cn2c(O)c(C=Nc3ccc(O)cc3)c3ccccc3c2=O)cc1`, the inhibition is reported as 16.6%.
Compound `CCOC(=O)CC(=O)CSc1nc(-c2cccnc2)cc(C)c1C#N` has an inhibition of 4.46%.
Compound `CC1CC(N(C(=O)c2ccccc2Cl)c2ccccc2)c2ccccc2N1` (configuration not stated) has an inhibition of 36.8%.
With `Cc1cccc(C)c1N1CCN(c2ccc3nnc(C(F)(F)F)n3n2)CC1` the inhibition was 54.3%.
